From the antibiotic and cytotoxicity screens of Wong et al. (2023)
The other results are listed elsewhere or left out.

Each molecule was assayed on S. aureus RN4220 (assay: growth inhibition call (relative growth <= 0.2)). Details: 50 µM.

Growth inhibition call, inactive:
CN(Cn1[nH]c(=O)ccc1=O)c1ccccc1
OC[C@H]1O[C@H]2O[C@@H]3[C@@H](O)[C@H](O)[C@H](O[C@@H]4[C@@H](O)[C@H](O)[C@H](O[C@@H]5[C@@H](O)[C@H](O)[C@H](O[C@@H]6[C@@H](O)[C@H](O)[C@H](O[C@@H]7[C@@H](O)[C@H](O)[C@H](O[C@@H]8[C@@H](O)[C@H](O)[C@H](O[C@@H]1[C@@H](O)[C@@H]2O)O[C@@H]8CO)O[C@@H]7CO)O[C@@H]6CO)O[C@@H]5CO)O[C@@H]4CO)O[C@@H]3CO
Cc1ccc(S(=O)(=O)Nc2ccc3c(c2)C(=O)N([C@H](C)CO)C[C@@H](C)[C@H](CN(C)S(=O)(=O)c2ccc(Cl)cc2)OCCCC[C@@H](C)O3)cc1
CC(C)C#Cc1ccc2c(c1)O[C@@H](CN(C)S(=O)(=O)c1cn(C)cn1)[C@@H](C)CN([C@@H](C)CO)S2(=O)=O
Cc1ccc(S(=O)(=O)Nc2ccc3c(c2)CC(=O)N([C@@H](C)CO)C[C@H](C)[C@H](CN(C)S(=O)(=O)c2cn(C)cn2)O3)cc1
CCN(CC)CCNC(=O)c1ccc(NC(C)=O)cc1.Cl
CO[C@@H](C(=O)N(C)C[C@H]1OCc2ccccc2-c2c(n(C)c3ccccc23)C(=O)N([C@@H](C)CO)C[C@H]1C)c1ccccc1
CCOC(=O)Cc1n[nH]c(=O)[nH]c1=O
C[C@@H]1CN([C@H](C)CO)C(=O)c2cccc(NS(=O)(=O)c3ccc(F)cc3)c2O[C@@H]1CN(C)C(=O)Nc1cccc2ccccc12
C[C@H]1CN([C@@H](C)CO)C(=O)c2cccc(NC(=O)c3cnccn3)c2O[C@H]1CN(C)S(=O)(=O)c1ccc(Cl)cc1
C[C@@](N)(C(=O)O)c1ccc(-c2nn[nH]n2)cc1
Cc1ccc(S(=O)(=O)Nc2ccc3c(c2)C(=O)N([C@@H](C)CO)C[C@H](C)[C@@H](CN(C)C(=O)Cc2ccccc2)OCCCC[C@H](C)O3)cc1
C[C@H]1CCCCO[C@H](CN(C)S(=O)(=O)c2ccc(F)cc2)[C@@H](C)CN([C@@H](C)CO)C(=O)c2cc(NC(=O)Cc3ccccc3)ccc2O1
Cc1noc(C)c1S(=O)(=O)N(C)C[C@H]1Oc2ccc(NC(=O)Cc3cn(C)c4ccccc34)cc2CC(=O)N([C@@H](C)CO)C[C@H]1C
C[C@H](CO)N1C[C@H](C)[C@H](CN(C)C(=O)NC2CCCCC2)Oc2ccc(NC(=O)Nc3cccc4ccccc34)cc2C1=O
COc1cccc(S(=O)(=O)N(C)C[C@@H]2Oc3cc(C#CCN(C)C)ccc3S(=O)(=O)N([C@H](C)CO)C[C@H]2C)c1
Cc1noc(C)c1NC(=O)Nc1ccc2c(c1)C(=O)N([C@@H](C)CO)C[C@H](C)[C@H](CN(C)S(C)(=O)=O)O2
CCCC#Cc1ccc2c(c1)O[C@@H](CN(C)Cc1ccc3c(c1)OCO3)[C@H](C)CN([C@H](C)CO)S2(=O)=O
C[C@@H]1CCCCO[C@H](CN(C)S(=O)(=O)c2ccc(Cl)cc2)[C@H](C)CN([C@H](C)CO)C(=O)c2cc(NS(=O)(=O)c3ccc(Cl)cc3)ccc2O1
COc1ccc(S(=O)(=O)Nc2ccc3c(c2)C(=O)N([C@H](C)CO)C[C@H](C)[C@H](CN(C)Cc2ccc(-c4ccccc4)cc2)O3)cc1
CCCNCC(O)COc1ccccc1C(=O)CCc1ccccc1.Cl (configuration not stated)
COc1ccccc1CN1C(=O)c2ccccc2[C@](Cc2ccccc2I)(C(=O)NCC(C)C)[C@@H]1c1ccc(CO)cc1
C[C@@H]1CN([C@@H](C)CO)C(=O)Cc2cc(NC(=O)CCCCCC(=O)Nc3ccccc3N)ccc2O[C@@H]1CN(C)CC1CCCCC1
Cc1noc(C)c1S(=O)(=O)N(C)C[C@H]1Oc2c(NS(=O)(=O)c3ccccc3)cccc2C(=O)N([C@@H](C)CO)C[C@H]1C
C[C@@H]1CCCCO[C@@H](CN(C)C(=O)NC2CCCCC2)[C@@H](C)CN([C@@H](C)CO)C(=O)c2cc(NC(=O)Cc3ccccc3)ccc2O1
COc1ccc(NC(=O)N(C)C[C@H]2OCc3cnnn3CCCC(=O)N([C@H](C)CO)C[C@@H]2C)c(OC)c1
Cc1noc(C)c1NC(=O)N(C)C[C@@H]1Oc2ccc(NS(=O)(=O)c3ccccc3)cc2CC(=O)N([C@@H](C)CO)C[C@@H]1C
